Here are results for 54 compounds from PubChem BioAssay AID1346428 (National Center for Advancing Translational Sciences (NCATS), 2018).

About 1,200 (2.5%) of roughly 48,000 compounds were called active. About 2% were inconclusive and are not listed.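 The calls were made as follows: active = activation of at least 60% and not above a set upper limit (about 1 call in 100 departs from these limits); inconclusive = activation of 40% to 60%, or above that upper limit; inactive = activation under 40%.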 The list shows a part of the results.

UniProt O75388, sequence (O75388 whole entry, looked up, the tested form may be a part): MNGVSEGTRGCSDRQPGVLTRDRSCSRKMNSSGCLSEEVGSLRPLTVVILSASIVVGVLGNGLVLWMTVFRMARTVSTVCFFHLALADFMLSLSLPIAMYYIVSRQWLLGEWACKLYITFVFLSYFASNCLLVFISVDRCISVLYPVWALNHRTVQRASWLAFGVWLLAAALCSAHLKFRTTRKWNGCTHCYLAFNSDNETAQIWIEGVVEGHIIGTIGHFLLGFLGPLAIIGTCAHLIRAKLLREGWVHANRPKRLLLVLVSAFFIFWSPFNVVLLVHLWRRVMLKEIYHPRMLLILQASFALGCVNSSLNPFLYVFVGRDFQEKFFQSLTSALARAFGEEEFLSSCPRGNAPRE

The target of the assay is Probable G-protein coupled receptor 32 (Homo sapiens) (UniProt O75388). In words: qHTS for Agonists of Human Resolvin D1 Receptor DRV1. Also: 0% is about no effect. The note with it: CHO-K1 GPR32 beta-arrestin PathHunter luminescence, 90 min; at 76.9 µM; active compounds read high; zero percent set by DMSO-only wells. The method in brief:
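Agonism was scored by beta-Gal fragment complementation (chemiluminescent read, 1 h detection at ambient temperature) reporting beta-arrestin binding to GPR32 in engineered CHO-K1 cells. Compound treatment lasted 90 min at 37 C, normalized to a DMSO basal control.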
As to `Cc1cc(C)cc(NC(=O)CCS(=O)(=O)c2ccc3c(c2)oc(=O)n3C)c1`, the activation was inactive: -10.6%.
Consider `COC(=O)c1ccc2c(=O)n(CCCCCC(=O)NC(C)C)c(=O)[nH]c2c1`, for which the activation is inactive: -26.2%.
Take `O=C(NCc1ccccc1)N1CCc2c(sc3c2CCCC3)C1c1ccccc1` (centres undefined): the activation was inactive: -16.1%.
`O=C(Nc1nnc2n1CCS2)c1ccccc1`: the activation was inactive: -57.1%.
As for `Cc1ccc(Cl)cc1NC(=O)N1CCc2cc(S(=O)(=O)N3CCC(C)CC3)ccc21`, the activation was inactive: -27.4%.
Turning to `Cc1cccc(-n2ncc3c(N4CCN(CCO)CC4)ncnc32)c1`, the activation was inactive: 36.4%.
As for `CCOc1ccc(C(=O)Nc2ccc3nc(SCC(=O)N(C)c4ccccc4)sc3c2)cc1`, the activation is inactive: -3.95%.
For the compound `CCOC(=O)c1cc(-c2ccc(OC)cc2)n(CCC(=O)Nc2ccc(OC)cc2OC)c1C`, the activation was inactive: -24.6%.
`CCOc1ccc(/C=C/c2nc3ccccc3n2S(=O)(=O)c2cccc(Cl)c2)cc1`: the activation is active: 69.8%.
As for `COc1ccccc1CNC(=O)c1ccc(Nc2nc3ccccc3n3nnnc23)cc1`, the activation was inactive: -6.45%.
In the case of `CC1CCN(S(=O)(=O)c2ccc3nc(Nc4cccc(C(F)(F)F)c4)ccc3c2)CC1`, the activation is inactive: -4.05%.
As for `COc1cccc(-c2nc(SCC(=O)NC3CCCC3)c(-c3ccc(F)cc3)[nH]2)c1`, the activation is inactive: -13%.
As to `CC(C)c1ccc(/C=C(\C#N)c2nc(-c3cc4ccccc4oc3=O)cs2)cc1`, the activation was inactive: 12.5%.
As for `O=C(CCCCCCCCC#CI)Oc1ccccc1`, the activation was inactive: 6.26%.
In the case of `COc1ccc(C2=C(C)C(=O)N(Cc3ccc(C(=O)Nc4ccc(C)c(C)c4)cc3)S2(=O)=O)cc1` it was inactive: 16.1%; in that of `COc1cc(Cl)c(C)cc1NS(=O)(=O)c1c(C)nc2sccn2c1=O`, inactive: -11.7%.
With `COC(=O)c1ccc(Nc2ncnc3c2cnn3-c2ccccc2)cc1`, the activation is inactive: -11.4%.
Turning to `CCOC(=O)CCn1cnc2onc(-c3ccccc3Cl)c2c1=O`, the activation was inactive: -4.44%.
As for `CCOc1ccccc1NC(=O)C1=C(C)Nc2ncnn2C1c1ccccn1` (centres undefined), the figure is inactive: 18.9%; as for `CCOC(=O)C1(C)C=C(Nc2cccc(C)c2)C(=O)N1c1ccccc1` (centres undefined), inactive: 2.51%; as for `Cc1ccc(CNC(=O)c2nc(S(=O)(=O)Cc3ccc(C)cc3)ncc2Cl)cc1`, inactive: 41.3%.
Turning to `COc1cc(-c2nnc(SCC(=O)Oc3ccc(C)cc3C)o2)cc(OC)c1OC`, the activation is inactive: -9.8%.
Regarding `Cc1cc(C)cc(NC(=O)CCCn2nc(C)c3c(C)n(-c4ccccc4)nc3c2=O)c1`, the activation was inactive: -6.48%.
As for `COc1cc(NC(=O)CCc2c(C)nc3c4c(C)cc(C)nc4nn3c2C)cc(OC)c1`, the activation is inactive: 26.2%.
Turning to `COc1ccc(NC(=O)CN(c2ccccc2OC)S(C)(=O)=O)c(OC)c1`, the activation was inactive: -2.29%.
Regarding `Cc1cccc(OCC(=O)Nc2ccccc2C(=O)OCc2cc(=O)n3nc(C4CC4)sc3n2)c1`, the activation was inactive: -2.51%.
As for `CC(=O)c1cccc(NC(=O)CSc2nc3c(=O)n(C)c(=O)n(C)c3n2C)c1`, the activation is inactive: -13.3%.
For `CC(C)CCn1c(=O)c2sccc2n2c(CCCC(=O)NC(C)c3ccccc3)nnc12` (centres undefined), the activation was inactive: -7.22%.
As to `Cc1cccc(-n2cnc3cc(C(=O)NC4CCCCCC4)ccc32)c1`, the activation was inactive: -2.48%.
As for `Cc1cccc(N2CCN(c3nc4ccccc4c4nc(-c5cccnc5)nn34)CC2)c1C`, the activation was inactive: 20%.
As for `Cc1ccc(CCNC(=O)c2cc3c(=O)n(C)c4ccccc4c3n2C)cc1`, the activation is inactive: -11.4%.
As for `CC(=O)[C@H]1CC[C@H]2[C@@H]3CCC4=CC(=O)CC[C@]4(C)[C@H]3CC[C@]12C`, the activation was inactive: -0.774%.
As to `Cc1ccc2cc3cc(C(=O)N(C)c4ccccc4C)oc3nc2c1`, the activation is inactive: -18%.
In the case of `CCn1cc(C(=O)Nc2ccc(C(C)C)cc2)c2cc(OC)c(OC)cc2c1=O` it was inactive: 0.557%; in that of `CCc1cccc(N2C(=O)N(Cc3c(F)cccc3Cl)c3ccccc3S2(=O)=O)c1`, inactive: -25.2%; in that of `CCc1cnc2c(c1SCCC(C)C)c(=O)n(C)c(=O)n2C`, inactive: -23.8%.
Take `CCOC(=O)c1ccc(NC(=O)c2c(NCc3cc(OC)ccc3OC)sc3c2CCC3)cc1`: the activation is inactive: -17.7%.
As to `Cc1cccc(C)c1NC(=O)CN1C(=O)c2ccccc2Sc2ncccc21`, the activation was inactive: 0.0212%.
Regarding `CC(=O)N1CCN(c2ccc(OC[C@H]3CO[C@](Cn4ccnc4)(c4ccc(Cl)cc4Cl)O3)cc2)CC1`, the activation was inactive: 2.77%.
Consider `CC(C)OCCCNC(=O)c1nn(C)c2c1CSc1ccccc1-2`, for which the activation is inactive: -7.37%.
As for `CCCOC(=O)c1ccc(Nc2c(C(=O)OCC)cnc3c(C)cc(Cl)cc23)cc1`, the figure is inactive: -20.8%; as for `COc1ccc(-c2noc(CSc3nnc(-c4ccccc4)n3C)n2)cc1`, inactive: 7.73%; as for `CC(=O)c1cc(-c2ccccc2)n(CC(=O)NCc2ccccc2C)c1C`, active: 79.7%.
As for `COC(=O)c1cc2sc(C)cc2n1CC(=O)Nc1ccc(C)cc1Cl`, the figure is inactive: -11.6%.
Consider `COc1ccc(C)cc1NC(=O)CN1CCN(S(=O)(=O)c2ccc(Br)cc2)CC1`, for which the activation is inactive: -7.9%.
As for `Cc1oc2c(cc(NS(=O)(=O)c3ccc(F)cc3)c3ccccc32)c1C(=O)OCc1ccccc1`, the activation was inactive: 24.4%.
Take `COc1ccc(C(=O)N2CCN(c3nc4c(C)c(Cl)ccc4s3)CC2)c(OC)c1`: the activation was inactive: -5.07%.
Regarding `CCOc1ccc(NC(=O)CN(C)S(=O)(=O)c2ccc3[nH]c4c(c3c2)CCCC4)cc1`, the activation was inactive: 20.6%.
Consider `Cc1cc(-c2ccc(S(=O)(=O)Nc3cccc(Cl)c3C)cc2)on1`, for which the activation is inactive: -6.26%.
As for `COc1cc(OC)c(OC)cc1/C=C/c1nc2ccccc2c(=O)n1-c1ccc(Br)c(C)c1`, the activation is inactive: -3.28%.
In the case of `Cc1cc(C(=O)Nc2cccc(C)c2C)c2c(C)nn(-c3cccc(F)c3)c2n1`, the activation was inactive: -6.93%.
Regarding `Cc1ccc(NC(=O)Cn2c(=O)ccc3cc(S(=O)(=O)N4CCCC4)ccc32)cc1N(C)C`, the activation was inactive: -7.65%.
Consider `O=C(c1ccc(Cl)cc1)c1cn(Cc2ccccc2)c2cc3c(cc2c1=O)OCCO3`, for which the activation is inactive: -11%.
In the case of `Cc1ccc(Cl)cc1N1CCN(C(=O)C2CCCN(Cc3nc(-c4cccc(Cl)c4)oc3C)C2)CC1` (centres undefined), the activation was inactive: 7.53%.
